Measured values: the supplement of paper PMC3334620
In all, about 33,000 sequences were measured (“E-score (-0.5 to 0.5)”: median about -0.035, highest 2% from about 0.34 on). Some of the results follow.

Each sequence was assayed against T1, Mot3 (UniProt P54785) (assay: PBM E-score (8-mer binding enrichment) (E-score (-0.5 to 0.5)); higher = stronger / more preferred TF binding; most listed sequences are background and not binding sites). Settings: protein concentration: 200 nM; construct: GST-full length.
T1 sequence: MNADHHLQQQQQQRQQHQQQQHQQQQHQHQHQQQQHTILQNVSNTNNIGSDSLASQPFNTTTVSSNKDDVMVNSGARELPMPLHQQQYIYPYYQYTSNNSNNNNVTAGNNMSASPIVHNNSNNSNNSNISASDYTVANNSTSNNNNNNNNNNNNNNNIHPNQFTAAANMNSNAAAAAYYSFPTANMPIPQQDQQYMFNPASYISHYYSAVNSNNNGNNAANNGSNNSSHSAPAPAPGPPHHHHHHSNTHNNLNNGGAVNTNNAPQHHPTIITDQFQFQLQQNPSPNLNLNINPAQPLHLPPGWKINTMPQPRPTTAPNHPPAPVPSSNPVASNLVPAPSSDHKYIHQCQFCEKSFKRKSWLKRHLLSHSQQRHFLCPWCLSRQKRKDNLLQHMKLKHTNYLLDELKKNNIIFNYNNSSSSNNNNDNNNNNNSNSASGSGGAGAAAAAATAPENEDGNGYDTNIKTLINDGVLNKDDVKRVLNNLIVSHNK
Outline: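 Using PURExpress in vitro transcription/translation, GST-tagged yeast transcription factors were made in full-length or DNA-binding-domain form. These were applied at about 100-200 nM to double-stranded universal all-10-mer Agilent arrays, and bound protein was detected with fluorescent anti-GST. Scans were normalised with masliner before the Universal PBM Analysis Suite assigned E-scores to ungapped eight-base words pooled with their reverse complements.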

Sequence	PBM E-score
ACTTTTAA	0.0373
CGCGAAGA	-0.0388
GATCGGGC	-0.22
GGCCCGAA	-0.201
ATGGGTTA	0.0948
CCGCTTCA	-0.167
AGAGAGAT	-0.0925
AGCACGCC	-0.114
AGGAGGTA	-0.109
GCAGACAA	0.0589
CAGACTTC	-0.0881
ATTTTAGA	-0.0785
GGTCCAAA	-0.0248
AGACCCAC	-0.0779
CCAGTCTC	-0.258
AACCTCAC	-0.115
CCACCACG	-0.169
GCCAAGCC	-0.349
ATATCATC	0.00215
CTAAACCA	-0.0323
ACTGCGCT	-0.105
TCGTACCA	-0.0952
AATGTGAA	0.116
ACGGATTA	0.163
GCCTCGAA	0.103

Sequence	PBM E-score
TAGGCCTA	0.0416
AAAGCCTG	0.0672
GCGTTGCA	-0.051
ATAGGGAC	-0.134
ATGTTCCA	0.0157
AGGCTTCA	-0.221
ACTCTGGA	-0.0159
CCTAGAAG	-0.113
CTGAATTC	0.0126
AGATAGTG	-0.0737
GCTACCAA	-0.0577
GCCGCGCC	-0.189
ACTGGAGG	-0.247
AAGGGTGG	-0.215
ATTGAGGA	-0.099
ACGTATGC	0.0428
TCTAATAA	0.181
ATATATAG	0.146
AGCCACCA	-0.18
GGCAAGAA	0.307
GGGGCACA	-0.202
GAGCAGGA	0.129
GATACGCA	0.0657
ACCCTGAA	0.074
AGCAACGA	-0.028

Sequence	PBM E-score
GTTCGCTA	0.00268
ATTCATGC	-0.0128
GATCAACC	-0.218
GTTCTTTA	0.227
TAAGAACA	0.262
ACACAGTG	0.168
TCGCTCAA	0.023
GGCGATAC	-0.207
TCGCAAAA	0.0297
TCGTTTAA	0.23
AGAATTTA	0.142
CTGGGATA	-0.119
AATGATGA	0.00977
AAGCATGA	-0.057
CCAGGGGA	-0.363
CTTACCGA	-0.224
TCGCGACA	-0.0759
GACGATGC	-0.0621
AATAACGG	-0.041
CCACCCAA	-0.226
AGCTACGG	-0.0998
TCGCGAGA	-0.12
CAAAGGAC	-0.189
ATTTTTAA	0.156
CGATGGTA	-0.133

Sequence	PBM E-score
AGTCAAGC	-0.084
ACGCGCCA	0.144
GCAACACC	0.0277
CGAAACCG	-0.162
GCCACAGA	-0.0635
CAACTATC	-0.235
AATGGGCA	0.279
CTGTGCAC	0.0162
CAACAAGG	0.277
AAAAATGA	0.0423
GCCGTTAC	-0.13
CTCCTGTC	-0.0661
ATAAGGAG	-0.0283
GGTGGCAC	-0.286
CTCCATCA	-0.148
ATGTCAAC	0.264
AGGATCCG	-0.143
TAAACACA	0.323
AGGTTCGA	0.0225
AATGATTG	0.151
ACAAAGCC	0.0921
CGGTTTAG	-0.0742
AGCAGAAT	0.059
TCCAGCAA	-0.185
AGTCGGAA	-0.143

Sequence	PBM E-score
GGGTGACA	-0.13
CTACGATA	-0.00283
GTGGCGCA	-0.0264
AGACTGTA	-0.109
ATCACGTC	0.0161
AATGAAAA	0.0669
ACTGTCGG	-0.227
AATGGTGG	-0.22
TCCTGAAA	0.0779
CCGTCCAC	-0.104
AGGTTATC	0.041
AGATCGGG	-0.295
ATAAAAGA	0.0356
GCTCTAAA	-0.0215
CCTATTCC	0.035
GCGTCGGA	0.0189
ACGCTTGG	-0.0287
CTGCTTGA	-0.0624
GAATCAGA	-0.0311
AGATAGAC	0.0786
ATATATGC	-0.0335
CAAGATTC	-0.0018
ACAGTATC	0.0766
AGCTAACT	-0.158
GACGGACC	-0.246

Sequence	PBM E-score
AGGGAACT	-0.0302
GCTATGGA	-0.332
ATGAATAA	0.0706
CTCCTTCC	-0.00162
ACGCAGAT	0.0549
CAAGGGCG	-0.0955
ATCTGGGA	-0.133
CGCGCATC	-0.214
CCAAGCCA	-0.154
AAGAAAAG	-0.00025
TCGTACAA	0.167
CACTACTG	-0.271
AATAACAA	0.166
GAAGGCCA	-0.0342
ACCATTCA	0.116
ACAGCCGC	-0.178
CAACGCGG	0.0945
ATTGACCG	0.131
CCCAGATA	-0.365
ATCTTATA	-0.056
GGTTCAAC	-0.0537
AAGATAGT	-0.143
ACAAGCCG	0.111
GAACACGA	0.187
ATAGAGTA	0.117

Sequence	PBM E-score
TCGACACA	0.179
GGTGCGAA	-0.0836
CCGGCTGA	-0.204
CACTACCG	-0.239
GGGGCGTA	-0.00086
CCAGCTCA	-0.199
ACTTTGTC	-0.0322
CGACGGTC	-0.104
GGTTGGAC	-0.255
AAGTGCTA	-0.0884
AGCGTCGA	-0.0838
CAAACAGC	-0.0942
AATGGCCA	-0.235
AGCTTTCA	0.0997
ACCCCGAT	-0.187
GATCATGA	0.0657
CTCATCAC	0.033
GCTGCATA	-0.0875
CACCTTGC	0.0972
TGGCTACA	-0.00828
CAAACAAA	0.119
AAGGGAGA	-0.00996
